{"source": "PubChem BioAssay AID1240", "about": "(Sanford-Burnham Center for Chemical Genomics, 2008)", "note": "About 800 (1.6%) of roughly 50,000 compounds showed an effect of 50% or more. This is one part of the list."}
{"target": "Bcl-2-like protein 10 (Homo sapiens) (UniProt Q9HD36)", "sequence (Q9HD36 whole entry, looked up)": "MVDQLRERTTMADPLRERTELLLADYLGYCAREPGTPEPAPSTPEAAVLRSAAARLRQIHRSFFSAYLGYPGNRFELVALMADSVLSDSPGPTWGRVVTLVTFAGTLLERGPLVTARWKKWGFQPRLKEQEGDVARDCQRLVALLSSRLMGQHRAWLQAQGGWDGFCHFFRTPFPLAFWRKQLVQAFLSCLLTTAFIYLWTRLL", "experiment": "TR3 peptide-Bcl-B binding displacers, biochemical primary FP assay, phenotype converters (AID 1240);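 further: 0% = Bcl-B with tracer peptide and DMSO and 100% = tracer peptide lacking Bcl-B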", "conditions": "GST-Bcl-B / FITC-TR3 peptide fluorescence polarization; stronger effect = higher value; compound at 3.75 mg/L", "units": {"displacement": "%"}}
{"smiles": "CC(=O)n1cc(Nc2ccccc2O)c2ccccc21", "displacement": 7.1}
{"smiles": "COc1cc(OC)c(OC)cc1CN1CCN(C(=O)c2ccc(F)cc2)CC1", "displacement": 0.1}
{"smiles": "O=C(NCC1CCN(C(=O)c2ccc(F)cc2)CC1)c1ccc(F)cc1", "displacement": -35.7}
{"smiles": "CC(=O)c1cccc(NC(=O)c2cncc(Br)c2)c1", "displacement": 30.2}
{"smiles": "Cc1cc2ncn(CC(=O)N3CCOCC3)c2cc1C", "displacement": 12.3}
{"smiles": "O=C1C(=O)N(Cc2ccc3c(c2)OCO3)C2C=CC=CC12", "note": "(stereo not given)", "displacement": 10.1}
{"smiles": "CC(C)c1ccc(OCCN2CCOCC2)cc1", "displacement": -4.6}
{"smiles": "CCNC(=S)NNC(=O)CSc1nnc(-c2ccc(OC)c(OC)c2)n1-c1ccccc1", "displacement": -20.1}
{"smiles": "COCCCNC(=O)CN(c1cc(OC)ccc1OC)S(C)(=O)=O", "displacement": 0.1}
{"smiles": "COC(=O)C1=C(C)NC2=C(C(=O)CCC2)C1c1ccc(Cl)cc1", "note": "(stereo not given)", "displacement": 2.2}
{"smiles": "C/C(Cn1nnc([N+](=O)[O-])n1)=N\\NC(=O)c1ccc(C)cc1", "displacement": -6.4}
{"smiles": "Cc1ccc(S(=O)(=O)Nc2cc([N+](=O)[O-])ccc2Cl)cc1", "displacement": -9.3}
{"smiles": "CC(NS(=O)(=O)c1cccc([N+](=O)[O-])c1)c1ccccc1", "note": "(stereo not given)", "displacement": 6.1}
{"smiles": "O=C(Nc1ccc(Cc2ccncc2)cc1)C(c1ccccc1)c1ccccc1", "displacement": -9.6}
{"smiles": "CCOC(=O)C1(C)C=C(O)C(=O)N1c1ccc(Br)cc1", "note": "(stereo not given)", "displacement": -11.6}
{"smiles": "Cc1cccc(NC(=O)C2C(C(=O)O)C3C=CC2C32CC2)c1", "note": "(stereo not given)", "displacement": -1.1}
{"smiles": "O=C(Nc1ccc(N2CCOCC2)cc1)c1cccc2c(Br)cccc12", "displacement": 13.3}
{"smiles": "O=C(/C=C/c1ccc(F)cc1)Nc1ccccc1Br", "displacement": 8.5}
{"smiles": "O=C1SC(N2CCOCC2)C(=O)N1c1ccccc1", "note": "(stereo not given)", "displacement": 5.1}
{"smiles": "COCc1cc(C)nc(NNC(=S)Nc2ccccc2)c1C#N", "displacement": -9.8}
{"smiles": "O=c1c2c(nc3cc(-c4cccs4)[nH]n13)CCS2", "displacement": 75.8}
{"smiles": "CCOc1ccc(NC(=S)NC(NC(=O)c2ccc(Cl)cc2Cl)C(Cl)(Cl)Cl)cc1", "note": "(stereo not given)", "displacement": 9.1}
{"smiles": "O=C(C(c1ccccc1)c1ccccc1)N1CCN(Cc2cccnc2)CC1", "displacement": -16.4}
{"smiles": "O=C(N/C(=C/c1ccc(Br)cc1)C(=O)N1CCCCC1)c1ccccc1", "displacement": -0.8}
{"smiles": "Cc1ccc(/C=N/N=C/c2ccc(C)cc2)cc1", "displacement": 2.2}
{"smiles": "Cc1cc(C)n(C(=O)CCN2C(=O)c3ccccc3C2=O)n1", "displacement": 5.3}
{"smiles": "CN(CCO)S(=O)(=O)c1ccc2c(c1)Cc1cc(S(=O)(=O)N(C)CCO)ccc1-2", "displacement": 9.2}
{"smiles": "Cc1ccc(OCC(=O)Nc2ccccc2CO)c(Br)c1", "displacement": -3.8}
{"smiles": "O=C(Nc1cccc(Cl)c1Cl)C(c1ccccc1)c1ccccc1", "displacement": -5.5}
{"smiles": "COc1ccccc1-c1c(C(F)(F)F)oc2cc(O)ccc2c1=O", "displacement": 6.5}
{"smiles": "COc1ccc(CNCc2ccc(OC)c(OC)c2)cc1", "displacement": 1.8}
{"smiles": "Cc1ccc(-c2cc(C(F)(F)F)n3ncc(C(=O)N4CCN(Cc5ccccc5)CC4)c3n2)cc1", "displacement": -2.4}
{"smiles": "COc1cc(C(=O)N2CCC(Cc3ccccc3)CC2)c([N+](=O)[O-])cc1OC", "displacement": 9.6}
{"smiles": "O=C1CSC(=O)N1c1ccc(Cl)cc1", "displacement": 6.1}
{"smiles": "Cc1ccccc1NC(=O)CC1c2ccccc2CC(C)(C)N1C", "note": "(stereo not given)", "displacement": 1.7}
{"smiles": "Cn1c2c(c(=O)n(C)c1=O)C(c1ccc(F)cc1)C1=C(N2)c2ccccc2C1=O", "note": "(stereo not given)", "displacement": -3.5}
{"smiles": "O=C(NC(=S)Nc1ccc(NC(=O)c2ccco2)c(Cl)c1)c1ccco1", "displacement": 12.6}
{"smiles": "COCCCNCCOCCOc1ccc(Cl)cc1C", "displacement": -0.6}
{"smiles": "O=C1C(=O)N(Cc2ccc(Cl)c(Cl)c2)C2C=CC=CC12", "note": "(stereo not given)", "displacement": 9.6}
{"smiles": "O=C1CCC(C23CC4CC(CC(C4)C2)C3)=NN1", "displacement": 8.3}
{"smiles": "O=C(N/N=C\\c1ccc[nH]1)c1cccs1", "displacement": 0.3}
{"smiles": "O=C(CSc1nc2ccccc2o1)N1c2ccccc2Sc2ccccc21", "displacement": -7.6}
{"smiles": "Cc1[nH]n(-c2ccccc2)c(=O)c1/C=C1\\C=c2ccccc2=N1", "displacement": -10}
{"smiles": "Cc1ccnc(NC(=O)COc2ccccc2[N+](=O)[O-])c1", "displacement": 4.4}
{"smiles": "CC(C)Oc1ccccc1C1CC(=O)Nc2c1cc(Br)c1ccccc21", "note": "(stereo not given)", "displacement": -1.9}
{"smiles": "Cc1cc(/C=N/NC(=O)CC#N)c(C)n1-c1ccc(N(C)C)cc1", "displacement": -9.1}
{"smiles": "O=C(c1ccc(Cl)cc1)N1CCN(c2ccc(F)cc2)CC1", "displacement": -4.8}
{"smiles": "O=C(/C=C/Nc1cccc(C(F)(F)F)c1)c1ccccc1", "displacement": -1.3}
{"smiles": "Cc1cc(C)cc(N(CC(=O)NCC2CCCO2)S(=O)(=O)c2ccccc2)c1", "note": "(stereo not given)", "displacement": -3.1}
{"smiles": "COc1cccc(C(=O)/C=C/c2ccc(Cl)cc2)c1", "displacement": -2.2}
{"smiles": "COc1cc(C(O)c2nccn2C)cc(OC)c1OC", "note": "(stereo not given)", "displacement": 0}
{"smiles": "CCOc1ccc2c(c1)C(=C1SC(C(=O)OC)=C(C(=O)OC)S1)C(=S)C(C)(C)N2C(=O)C1CC1", "displacement": 3.2}
{"smiles": "CC(C)c1ccc(/C=C/c2nc(O)c([N+](=O)[O-])c(=O)[nH]2)cc1", "displacement": -2.6}
{"smiles": "CCOc1ccccc1NC(=O)C(C)N1C(=O)c2ccccc2C1=O", "note": "(stereo not given)", "displacement": 8.8}
{"smiles": "N/C(Cc1cccs1)=N\\OC(=O)COc1ccccc1", "displacement": 14}
{"smiles": "COc1ccc(-n2c(SCC(=O)Nc3ccc(C)cc3)nc(O)c(Cc3ccccc3)c2=O)cc1", "displacement": 22.8}
{"smiles": "CC1=C(C(=O)OCc2ccccc2)C(c2cc3c(cc2Cl)OCO3)C2=C(CC(C)(C)CC2=O)N1", "note": "(stereo not given)", "displacement": -1.7}
{"smiles": "Cc1ccc(C)c(NC(=O)CCC2CCCCC2)c1", "displacement": 1.4}
{"smiles": "Cc1ccc(NC(=O)C(=O)NCCN2CCN(Cc3ccc(Br)cc3)CC2)cc1", "displacement": 6.1}
{"smiles": "C=CCN1C(=O)/C(=C\\c2ccc(OC(=O)c3cccc(Br)c3)c(OC)c2)SC1=S", "displacement": 9.1}
{"smiles": "CCC(=O)Nc1ccc2c(c1)N(C(C)=O)c1ccccc1CC2", "displacement": -6.7}
{"smiles": "N/C(=N\\OC(=O)c1ccccc1Br)c1cccc([N+](=O)[O-])c1", "displacement": -6.4}
{"smiles": "Cc1cc(/C=C2\\C(=O)NC(=O)N(c3ccc4c(c3)OCO4)C2=O)c(C)n1-c1cccnc1", "displacement": 136}
{"smiles": "OCCn1nc(-c2ccccc2)cc1-c1ccccc1", "displacement": 8.4}
{"smiles": "Cc1ccc(N2C(=O)NC(=O)/C(=C\\c3ccc(Cl)cc3)C2=O)cc1", "displacement": 11}
{"smiles": "CC(C)N1C(=O)/C(=C/C=C/c2ccc([N+](=O)[O-])cc2)SC1=S", "displacement": 9.4}
{"smiles": "COc1ccccc1N1C(=O)CC(SC(=NCCc2ccccc2)Nc2ccccc2)C1=O", "note": "(stereo not given)", "displacement": 3.9}
{"smiles": "CCCCCN1C(=O)/C(=C2\\SC(=S)N(NC(C)=O)C2=O)c2ccccc21", "displacement": 0.1}
{"smiles": "CC(C)CN1C(=O)c2ccc(C(=O)Nc3ccc(C(C)C)cc3)cc2C1=O", "displacement": 4.4}
{"smiles": "O=[N+]([O-])c1ccc(-c2[nH]c(-c3cccs3)nc2-c2ccccc2)cc1", "displacement": -1.6}
